Test results as given in the supplement of paper PMC10126150.
Sequences with one replicate were seen in a single cluster, so their values are uncertain.

Test system: ATP
Assay: switch fluorescence ratio, 500 uM ATP over buffer (Cy3 cluster intensity, sum of 5 cycles each) (fold (ratio)); higher = stronger signal-on switching upon ATP binding; sequences stand for … in TCGTCGGCAGCGTCAGATGTGTATAAGAGACAGTTTTTTTTTTTTTTTTTTTTTTTTT…TC
Details: aptamer strand: ATP DNA aptamer (quencher-CACCTGGGGGAGTATTGCGGAGGAAGG + anchor), 100 nM annealed; ATP concentration: 500 uM; one replicate
Summary of the method: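 Exposure to 500 uM ATP lasted 15 min at 22 °C before imaging, and a selection-buffer image was taken beforehand, for Cy3-labelled switching-strand clusters on a modified Illumina MiSeq flow-cell annealed to 100 nM quencher-labelled ATP aptamer. Five buffer/ATP cycles were run with NaOH stripping and re-annealing between them. The fluorescence ratio per cluster is summed target-cycle over summed buffer-cycle Cy3 intensity, averaged per switch-domain sequence. Clusters outside 100-1000 RFU were excluded.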

Row | Sequence | switch fluorescence ratio
1 | CGCGTTAATC | 1.08
2 | CGTGTTCCAT | 0.998
3 | ATAAATTGAC | 1.01
4 | CTACCTTCTT | 1.3
5 | GGGTTACACA | 1.02
6 | TCTTTCGATC | 1.05
7 | GGAATGTAGT | 0.957
8 | TTGGCGTTGC | 1.01
9 | AAGGCTCCGG | 1.01
10 | GATGTCAATC | 1.01
11 | TGCCCTGACG | 1.08
12 | GACTTCTAAT | 0.999
13 | GGGAATAGCA | 0.983
14 | GAGGCTGTGT | 1.01
15 | GCGGAGGGG | 0.946
16 | CCCAGTAGCC | 1.01
17 | GATATATGGG | 0.998
18 | ATATGATGG | 0.994
19 | TCGCTACAAA | 1.03
20 | TGGTGGATAC | 1.02
21 | CATCGCGCTG | 1.03
22 | GCTATGTATG | 0.937
23 | GAAGCTGCGA | 1.04

Row | Sequence | switch fluorescence ratio
24 | CTGTTAGCA | 1.22
25 | AATGTTTACG | 0.957
26 | GTGCCAGGGA | 1.05
27 | TCCAAGGATA | 1.01
28 | GCACAATTGA | 1.01
29 | TGTTATTCTG | 1.05
30 | AGGGGTATCC | 0.978
31 | TTTTCCTTGG | 0.999
32 | AAAGCCGTTG | 1
33 | TTCCGTCGCA | 4.63
34 | GTTGAAGGGC | 0.979
35 | TAAACTGGGG | 1.02
36 | ATGACTTCGT | 1
37 | GCGGAATGTC | 1.03
38 | CAAGGCCAAG | 1
39 | TACACTCAAT | 1.04
40 | GAATGTTTTC | 1.05
41 | TGCGTTATAC | 2.5
42 | GTCCTACCTT | 1.11
43 | TAGTACCGCG | 0.99
44 | GGAATCTATA | 0.952
45 | CTTTCGTATC | 1.13
46 | AATTGGGAGA | 0.938

Row | Sequence | switch fluorescence ratio
47 | TATCCTCGGC | 1.4
48 | ACTATTCACA | 1.13
49 | CGTACTGCCC | 0.963
50 | GGCATTCAAC | 1.04
51 | AAAGGAAGCT | 1.05
52 | TCGCAGCGCG | 0.998
53 | CATCAAATTT | 1.07
54 | GAGGCGGGCA | 1
55 | GGTCTCAGTG | 0.992
56 | CGGTTGGTTG | 0.987
57 | TAAGAGTTAG | 0.947
58 | TAGTATCGGG | 0.978
59 | AAGGATGCAA | 1.04
60 | TAAAAGAGTG | 1.03
61 | TATTTGCAGC | 1.07
62 | TTTCTAACT | 0.985
63 | TGTGGAGTAA | 1.07
64 | CAATTCTCCG | 1.08
65 | GATGAAGGAT | 0.981
66 | ACCCAGTCTT | 1.02
67 | GGAAATGAAA | 1.02
68 | TGGTGCGCGC | 0.898
69 | CGTACACCC | 1.28

Row | Sequence | switch fluorescence ratio
70 | GTGCCTACTT | 1.01
71 | CCGGCATTTC | 2.83
72 | GGTTAGTGAC | 1.02
73 | ATCGCGACGC | 1.09
74 | AATTCTGAG | 1.02
75 | CACTGTATAC | 1.66
76 | TACGTTTAC | 1.32
77 | TGTTGCATAT | 0.987
78 | CTATGATGTT | 1.01
79 | TGGGATTCCG | 0.989
80 | TTAAACCTTA | 1.49
81 | CGTCGTTTAT | 1.03
82 | CCGTCTGTGT | 1.08
83 | GAAGTCTACC | 1.08
84 | AAATTACTTA | 1.08
85 | GGACAGATCC | 0.954
86 | TCCCGCTATT | 2.6
87 | TGAAAAATAA | 0.98
88 | TATTCCACCA | 1.07
89 | CTGCTCAGTA | 0.992
90 | TTGATTAAAA | 0.966
91 | TAACGGGTT | 0.996
92 | TTGCTGAATA | 1.02

Row | Sequence | switch fluorescence ratio
93 | AGCCGATGTA | 0.992
94 | TGTGACCGGG | 1.03
95 | GTCGGCCGAG | 0.962
96 | ATACGTTGGA | 1.02
97 | GCTGCTGGAT | 0.998
98 | CCATCAGCTC | 1.56
99 | CCCTTTCATC | 1.95
100 | GTATCATAGT | 0.987
101 | GGGGTTCAGT | 0.99
102 | CAATAGCTAC | 3.43
103 | TAGGGAGACA | 1.03
104 | AAAATTGTAG | 1.01
105 | CGATCAAGGG | 1.02
106 | TCCTCAGAAC | 1.7
107 | AAACACATAA | 1.05
108 | TGAGGAAATA | 1.07
109 | TAGGCGAAGT | 0.944
110 | GGCCTACGCC | 1.05
111 | TTCGCGTATC | 1.06
112 | CATGCATG | 0.969
113 | AAGTATGAGG | 0.975
114 | ACACTATGTG | 0.953
115 | CAATGGTCT | 1.03

Row | Sequence | switch fluorescence ratio
116 | ATGTCTGTTA | 1.02
117 | TCAGAGCACT | 1.12
118 | CCGTGTATCG | 0.992
119 | AGTGGTCGGG | 1.01
120 | GGTTTCCTTC | 1.03
121 | TCATGTAATA | 1.04
122 | GACCATGCAT | 1.02
123 | TTATCGGTGC | 1.02
124 | GCTAATCGT | 0.976
125 | TGAGTTAGCC | 1.21
126 | TGAGGGGCGT | 0.954
127 | GTTACGACAA | 1.06
128 | AGATTAGGC | 1.02
129 | CGAAATTA | 1.04
130 | ATCTGCCAC | 1.18
131 | GTACGGTT | 1.03
132 | TCCAGCGCTT | 1.3
133 | CGTGAGAATT | 0.975
134 | TACTAATCGG | 1.03
135 | TTGGCCCTCG | 0.999
136 | GTCGCTAACA | 0.968
137 | ATATGATTCG | 0.988
138 | GAAGCTCCGA | 1.07

Row | Sequence | switch fluorescence ratio
139 | TCGGGTCAAC | 1.01
140 | CGCTGGCTAG | 0.999
141 | CAAATCACGC | 1.09
142 | CGAACGTCGG | 1.01
143 | AGCGATGGG | 0.998
144 | GCGACGATGT | 1.08
145 | TAGAAGCTGT | 1.01
146 | CCTAAGTAAG | 1.1
147 | TAGGGCCCGA | 0.99
148 | GCCCGATGCA | 1.02
149 | CGGAAGTTAC | 1.5
150 | TGGTCGAGCA | 0.994
151 | TGTTCAGATT | 1.03
152 | CTATTCCTGC | 0.981
153 | TTGTATCATT | 0.963
154 | TCTGAGGGTG | 0.997
155 | GCGTGTCTGC | 0.992
156 | GATGTTAGTC | 1.01
157 | GGTAGATGAA | 1.01
